Screen size: about 370,000 compounds; about 150 (0.041%) were called active. Inconclusive results, whose numbers are uncertain, are shown with a selection of clear calls. Calls follow the shape of the dose curve; as a rule, active = well fitted inhibition curve with a large enough effect; inconclusive = small, poorly fitted or top-dose-only effect; inactive = flat fitted curve, though single readings scatter. No potency is given beside an inconclusive call; the fits are too rough.
Target: Beta-lactamase (Escherichia coli (strain K12)) (UniProt P00811)
Experiment: qHTS Inhibitors of AmpC Beta-Lactamase (assay with detergent); also: nearly all actives have a fitted effect of over 25% in size;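 as to activity change, negative = inhibition: 0% = no-compound wells and -100% = no-enzyme wells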
Conditions: AmpC hydrolysis of nitrocefin, absorbance 480 nm, 0.01% Triton; activity change, negative = inhibition: at 114 µM (top of the series)
Outline: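 AmpC (5.3 nM in the dispensed reagent) in 20 mM phosphate pH 7.0 with 0.01% (detergent screen) or 0.0001% Triton X-100 was preincubated with compounds for 15 min at room temperature. Nitrocefin was then added from an 800 uM solution, and hydrolysis was followed at 480 nm.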
Potency is read from the fitted curve at half-maximal effect; tags tell the direction and shape of the fitted curve.

Chain of UniProt P00811 (P00811 whole entry, looked up): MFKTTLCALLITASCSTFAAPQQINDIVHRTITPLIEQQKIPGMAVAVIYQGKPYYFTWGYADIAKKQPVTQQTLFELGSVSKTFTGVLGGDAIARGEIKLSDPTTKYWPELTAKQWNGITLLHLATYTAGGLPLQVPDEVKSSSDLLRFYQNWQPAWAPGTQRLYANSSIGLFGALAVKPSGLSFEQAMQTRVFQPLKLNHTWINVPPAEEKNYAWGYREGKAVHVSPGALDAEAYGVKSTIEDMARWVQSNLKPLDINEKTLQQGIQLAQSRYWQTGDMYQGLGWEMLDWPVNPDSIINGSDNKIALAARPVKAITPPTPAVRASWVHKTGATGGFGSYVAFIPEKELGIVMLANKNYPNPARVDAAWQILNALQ

Structure (SMILES)	Potency	activity change, negative = inhibition
CCn1cc(C=C2C(=O)c3ccccc3C2=O)c2ccccc21	inconclusive [inhibitor, partial curve, poor fit]	–
CCOc1ccc(OCC)c(NC(=O)C2CCN(c3nn4c(=O)cc(C)nc4s3)CC2)c1	inconclusive [inhibitor, full curve]	–
CCCCCCCc1nc2c(=O)n(C)c3ccccc3c2o1	inconclusive [inhibitor, full curve, poor fit]	–
O=C(NCc1n[nH]c(=S)n1-c1ccc(Cl)c(Cl)c1)c1cccs1	inconclusive [inhibitor, partial curve]	–
Nc1ccc2oc(C3CCCCC3)nc2c1	–	inactive: -5.33%
Cc1ccc(N(CC(=O)NCc2ccc3c(c2)OCO3)C(=O)CCC(=O)Nc2ccccn2)cc1	inconclusive [inhibitor, full curve, poor fit]	–
CC(NC(=O)Cc1ccc(NC2=NC3CS(=O)(=O)CC3S2)cc1)c1ccccc1 (stereo not drawn)	inconclusive [inhibitor, full curve, poor fit]	–
CC(C)Cc1nc(C(N)=O)c2[nH]c(=O)n(-c3ccc(F)cc3)c2n1	inconclusive [inhibitor, partial curve, poor fit]	–
COc1cccc(CNC(=O)COc2ccc(C(=O)c3ccccc3)cc2)c1	inconclusive [inhibitor, single point]	–
Cn1cnc(S(=O)(=O)N2CCCC(C(=O)Nc3cccc(C#N)c3)C2)c1 (stereo not drawn)	–	inactive: 12.1%
CCOC(=O)C1CCCN(CC(=O)Nc2c(C(=O)OC)[nH]c3ccccc23)C1 (stereo not drawn)	inconclusive [inhibitor, single point]	–
Cc1cccc(NC(=S)NC(=O)Cc2ccccc2)c1C	inconclusive [inhibitor, full curve, poor fit]	–
Cc1ccc(-n2c(-c3ccccc3)n[nH]c2=S)c(C)c1	inconclusive [inhibitor, partial curve, poor fit]	–
Cc1cc(SCC(=O)c2cc3ccccc3o2)nc2ccccc12	inconclusive [inhibitor, partial curve, poor fit]	–
Cc1ccc(Cl)cc1NC(=O)Cn1cccc1	inconclusive [inhibitor, partial curve]	–
Cc1ccc(F)cc1NS(=O)(=O)c1ccc(Cl)s1	inconclusive [inhibitor, full curve]	–
COc1cc(NC(=O)CN2CCN(Cc3ccc4c(c3)OCO4)CC2)cc(OC)c1	inconclusive [inhibitor, full curve, poor fit]	–
CCOc1ccc(S(=O)(=O)N2CCc3cc(OC)c(OC)cc3C2)cc1	inconclusive [inhibitor, full curve]	–
Nc1nnc(COc2cccc(C(F)(F)F)c2)s1	inconclusive [inhibitor, full curve]	–

Structure (SMILES)	Potency	activity change, negative = inhibition
CCN(CC)S(=O)(=O)c1cc(NC(=O)CCNC(=O)c2ccccc2Cl)ccc1C	inconclusive [inhibitor, full curve, poor fit]	–
CCCCCN(C(=O)COC(=O)CSc1ccc([N+](=O)[O-])cc1)c1c(N)n(CCCC)c(=O)[nH]c1=O	inconclusive [inhibitor, full curve]	–
Cc1cc(C)n2nc(C(=O)Nc3nnc(C4CC4)s3)nc2n1	inconclusive [inhibitor, partial curve, poor fit]	–
CN(C)CCCN1C(=O)c2cccc3c([N+](=O)[O-])ccc(c23)C1=O	–	inactive: -3.28%
Cc1ccc([N+](=O)[O-])cc1S(=O)(=O)Nc1ccc(-c2ccc(N3CCOCC3)nn2)cc1	inconclusive [inhibitor, partial curve, poor fit]	–
O=c1oc2cc(O)ccc2cc1S(=O)(=O)c1ccccc1	inconclusive [inhibitor, single point]	–
CCC(C)(C)NC(=O)C(c1ccco1)N(C(=O)c1csnn1)c1cccc(F)c1 (stereo not drawn)	inconclusive [inhibitor, full curve, poor fit]	–
O=c1[nH]c2cc3c(cc2cc1CN(CC1CCCO1)S(=O)(=O)c1ccccc1)OCCO3 (stereo not drawn)	inconclusive [inhibitor, full curve, poor fit]	–
CC(CC(=O)Nc1nnc(CC(C)(C)C)s1)c1ccccc1 (stereo not drawn)	inconclusive [inhibitor, full curve, poor fit]	–
O=c1cc(C2CCNCC2)[nH][nH]1	inconclusive [inhibitor, full curve, poor fit]	–
Cc1cc(C)c(S(=O)(=O)NCC2CCC(C(=O)NCCCN3CCOCC3)CC2)c(C)c1 (stereo not drawn)	inconclusive [inhibitor, partial curve, poor fit]	–
Cn1c(CC(=O)Nc2ccc(Cl)c(Cl)c2)nnc1SCC(=O)Nc1nccs1	inconclusive [inhibitor, single point]	–
COC(=O)c1ccc(Nc2nc(C)cc(=O)[nH]2)cc1	inconclusive [inhibitor, full curve, poor fit]	–
COc1ccc(N(C(=O)CNC(=O)c2ccco2)C(C(=O)NCC2CCCO2)c2ccccc2)cc1OC (stereo not drawn)	inconclusive [inhibitor, full curve, poor fit]	–
O=C(c1ccc(Oc2ccccc2)cc1)c1nc2c(n1O)CCCC2	–	inactive: 6.83%
CCOC(=O)c1sc(NC(=O)c2ccc3ncsc3c2)nc1C	inconclusive [inhibitor, full curve, poor fit]	–
CCN(CC)CCNC1=CC(=O)OC12CCCCC2	inconclusive [inhibitor, partial curve]	–
O=C(OCC1OC(n2cnc3c(N(C(=O)c4ccccc4)C(=O)c4ccccc4)ncnc32)C(O)C1F)c1ccccc1 (stereo not drawn)	inconclusive [inhibitor, full curve, poor fit]	–
CCOC(=O)C1=C(CN2CCN(C(=O)c3ccco3)CC2)NC(=O)NC1c1ccc(Cl)cc1 (stereo not drawn)	inconclusive [inhibitor, partial curve, poor fit]	–
